Test results reported in US20060140929A1 (Merck KGaA, published 2006).

Target: thrombin
Assay: cell-based or functional assay

B1: hirudin mutein M 18 (I29D L30R) (other)
chain: VVYTDCTESGQNLCLCEGSVVCGQGNKCILGSDGEKNQCVTGEGTPKPESHNDGDFEEIPEEYLQ
  Relative Activity (ratio of variant IC50/WT IC50), chromogenic thrombin inhibition assay: 2.5 ratio
